The whole screen tested about 330,000 compounds, of which about 4,200 (1.3%) were called active. This list was built around the results that the source calls inconclusive (neither active nor inactive); the mix of calls is not that of the screen. The call rests on the fitted dose curve; in most records, active means well fitted activation curve with a large enough effect; inconclusive means small, poorly fitted or top-dose-only effect; inactive means no such curve, though single readings can be large or run the other way. Potencies of inconclusive entries are doubtful fits and often do not repeat.
experiment: qHTS screen for small molecules that induce genotoxicity in human embryonic kidney (HEK293T) cells expressing luciferase-tagged ELG1; conditions: HEK293T ELG1-luciferase reporter, luminescence, 16 h; series mostly up to 46 µM; further: nearly all actives have a fitted effect of over 60% in size
In short: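 Genotoxicity was scored as increased ELG1-luciferase reporter signal, measured by ONE-Glo luminescence (30 min, room temperature). Compound or vehicle exposure of the HEK293T reporter cells lasted 16 hr at 37°C.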
Potency means the concentration at half of the fitted maximal effect; tags describe the fitted curve by direction and shape.

Structure (SMILES)	Potency
COC(=O)CCn1nnc(-c2ccc(C)cc2)n1	inconclusive: 16.4 µM [activator, partial curve, poor fit]
CCc1ccc(-c2csc3[n+]2CCN3C(C)=O)cc1	inactive
Cc1ccc2[nH]c(-c3cccc(F)c3)cc(=O)c2c1	active: 14.6 µM
CCc1ccc(NC(=O)CSc2nncn2-c2cccnc2)cc1	inconclusive: 4.61 µM [activator, single point]
O=[N+]([O-])c1cccc(N/N=C/c2cc([N+](=O)[O-])ccc2O)c1	inconclusive: 23.1 µM [activator, partial curve, poor fit]
COc1ccc(NC(=S)NC(=O)c2cc3ccccc3o2)c(OC)c1	inconclusive: 25.9 µM [activator, partial curve, poor fit]
COc1ccc(CN(C)Cc2nc(Cc3cccc(F)c3)no2)c2cccnc12	inactive
Cn1c(CNc2ccc(F)cc2)nc2ccccc21	active: 16.4 µM
O=C(c1c(F)cccc1F)N1CCCC(c2nc(-c3cccs3)no2)C1 (centres undefined)	inconclusive: 6.51 µM [activator, partial curve, poor fit]
CN(C)c1ccc(-c2nc3ccccc3c(=O)[nH]2)cc1	active: 0.82 µM
O=C(CSc1nnc2sc3ccccc3n12)c1ccco1	inconclusive: 16.4 µM [activator, single point]
O=C1/C(=C/c2ccco2)CCC1C1CCCC1 (centres undefined)	active: 23.1 µM
Cc1cccc(N2CCN(S(=O)(=O)c3ccc(Cl)nc3)CC2C)c1 (centres undefined)	inactive
O=C1NC(=Nc2ccc(Cl)cc2)/C(=C/c2ccco2)S1	inactive
O=C(N/N=C/c1ccccc1)c1ccc2c(c1)OCO2	inconclusive: 2.06 µM [activator, partial curve]
O=C(O)c1ccc(N/N=C/c2cc(Br)cs2)cc1	inconclusive: 0.326 µM [activator, full curve, poor fit]
O=C(N/N=C/C(Br)=C/c1ccccc1)c1ccccc1F	active: 18.3 µM
CCCc1nc(SCC(=O)NCc2ccco2)c2c(=O)n(C)c(=O)n(C)c2n1	inactive
Cc1nc2ccc(NC(=O)CCC3CCCC3)cc2s1	inconclusive: 2.59 µM [activator, full curve]
CCc1nc(-c2cc3ccc(C)cc3[nH]c2=O)no1	inconclusive: 18.4 µM [activator, partial curve]
O=c1c2ccccc2nc2sc(Nc3ccc(F)cc3)nn12	active: 10.3 µM
O=C(O)CC1SC(N/N=C/c2ccc(Br)cc2)NC1=O (centres undefined)	inconclusive: 4.11 µM [activator, partial curve, poor fit]
COc1ccc(F)cc1S(=O)(=O)NCC1CCCO1 (centres undefined)	inactive
CN1N=C(/C=C/c2ccccc2)CCC1=O	inconclusive: 14.1 µM [activator, partial curve]
c1cncc(-c2nc(-c3ccc4c(c3)OCO4)cs2)c1	inconclusive: 14.6 µM [activator, partial curve]

Structure (SMILES)	Potency
O=C(NCc1nnc(SCC(=O)N2CCN(c3ccccc3)CC2)o1)c1ccc(F)cc1	inactive
CC(C)(O)C#Cc1ccc(C(=O)NC2CCCCC2)s1	inconclusive: 20.6 µM [activator, single point]
O=C(/C=C/c1ccc2c(c1)OCO2)N1CCCCC1	inconclusive: 4.61 µM [activator, partial curve, poor fit]
Fc1cccc(/C=N/Nc2nncc3ccccc23)c1	active: 0.73 µM
Cc1cc(C)c(S(=O)(=O)N2CCCCC2CCNC(=O)C(=O)NCc2cccnc2)c(C)c1 (centres undefined)	inactive
COc1cc(C(=O)Oc2ccc3ccc(O)cc3c2)cc(OC)c1OC	inconclusive: 29.1 µM [activator, partial curve, poor fit]
Cc1ccc(OCc2ccc(C(=O)O)o2)c([N+](=O)[O-])c1	inactive
CCc1ccc(OCc2ccc(C(=O)O)o2)cc1	inconclusive: 0.291 µM [activator, full curve]
Cc1ccc(COc2ccc(C)nc2[N+](=O)[O-])cc1	active: 3.66 µM
O=C(c1ccc(S(=O)(=O)N2CCCC2)cc1)N1CCCCCC1	inactive
COc1ccc(OCc2cccc(C(=O)Nc3cc(C)on3)c2)cc1	inconclusive: 0.58 µM [activator, full curve]
CC(CNC(=O)COc1ccc2c(c1)OCO2)c1ccccc1 (centres undefined)	inactive
CC(=O)c1c(C)[nH]c(C(=O)Nc2ccc(C)c(S(=O)(=O)N(C)C)c2)c1C	inconclusive: 23.1 µM [activator, single point]
CCOC(=O)CNC(=O)Nc1nnc(-c2ccc(OCC)cc2)o1	inactive
CC(=O)c1ccc(Oc2ccc(C(C)=O)cc2)cc1	inconclusive: 20.6 µM [activator, partial curve, poor fit]
O=C(Nc1ccccc1C(=O)N/N=C/c1ccccc1)c1ccco1	inactive
CCCC(=O)N1c2ccc(-c3csc(N)n3)cc2CC1C (centres undefined)	inconclusive: 5.17 µM [activator, single point]
COc1ccc(NC(=O)COC(=O)CNC(=O)COc2ccccc2)cc1OC	inactive
O=C(CNC(=O)c1cccc(F)c1)N/N=C/c1cc(Br)ccc1OC(=O)/C=C/c1ccco1	inconclusive: 29.1 µM [activator, single point]
NC(=O)c1c(NC(=O)C2CCCO2)sc2c1CCCC2 (centres undefined)	inconclusive: 18.4 µM [activator, partial curve, poor fit]
COc1cc(OC)cc(-c2c(-c3cccs3)c3cc(-c4ccc(C(N)=O)cc4)ccc3n2C)c1	inconclusive: 25.9 µM [activator, partial curve, poor fit]
CCOC(=O)/C(=C/c1ccc(N2CCC(c3ccccc3)=N2)cc1)C(C)=O	active: 20.6 µM
Oc1c(C=Nc2cccc3cccnc23)sc2ccccc12	active: 3.26 µM
COc1ccc(NC(=O)COc2ccc(/C=N/O)cc2OC)cc1	inconclusive: 5.8 µM [activator, partial curve, poor fit]
CCN1CCN(CCCNC(=O)c2ccc(/C=C3/Oc4ccccc4N(Cc4cccc(C)c4)C3=O)cc2)CC1	inconclusive: 18.3 µM [activator, single point]

Structure (SMILES)	Potency
COc1ccc(/C=N/Nc2ccccn2)cc1O	inconclusive: 13 µM [activator, partial curve]
O=C(CCCC(=O)c1ccc(O)cc1)c1ccc(O)cc1	active: 4.61 µM
CNc1nc(N)c([N+](=O)[O-])c(Nc2cccc(F)c2)n1	inconclusive: 16.4 µM [activator, partial curve, poor fit]
O=S(=O)(Nc1cccc(-c2ccc(N3CCCCCC3)nn2)c1)c1cccc(F)c1	inconclusive: 14.6 µM [activator, partial curve]
COc1ccc(NC(=O)c2nc[nH]c2C(=O)NCCCCCNC(=O)OC(C)(C)C)cc1	inconclusive: 23.1 µM [activator, partial curve, poor fit]
O=C(NCCc1ccccc1)C1CCN(C(=O)Nc2ccccc2)CC1	inconclusive: 16.4 µM [activator, partial curve, poor fit]
CCN(CC)c1ccc(NC(=O)c2cccc(C)c2OC)c(C)c1	inconclusive: 5.17 µM [activator, partial curve]
CNC(=O)c1c(Br)cnn1-c1ccc(C)cc1	inconclusive: 7.3 µM [activator, partial curve]
O=C(Nc1ccc(N2CCCCCC2)cc1)c1ccc[nH]1	inconclusive: 2.59 µM [activator, full curve]
CC1CCN(c2ccc(-c3ccc(NC(=O)c4ccco4)cc3)nn2)CC1	inconclusive: 13 µM [activator, partial curve]
O=C(NCC(=O)N1CCCC1)c1ccccc1F	inconclusive: 20.6 µM [activator, partial curve, poor fit]
CC1CCN(C(=O)Cn2cc3c(n2)CCCC3)CC1	inconclusive: 13 µM [activator, partial curve, poor fit]
COc1ccc(/C=C/C(=O)Nc2ccccc2C(=O)O)cc1	inconclusive: 2.31 µM [activator, partial curve]
CCN(CC)CCNC(=O)c1cccc(NC(=O)C(=O)c2ccccc2NC(C)=O)c1	inactive
COc1ccc(-c2cc(O)cc(O)c2)cc1	active: 6.51 µM
CCCc1cc(C(=O)Nc2nccs2)cs1	active: 1.3 µM
COc1cc(OC)c(Nc2cc(C)nc3nc(C)nn23)cc1Cl	inconclusive: 13 µM [activator, partial curve, poor fit]
Nc1nc(-c2ccc(NC(=O)c3ccco3)cc2)cs1	inconclusive: 0.73 µM [activator, full curve]
COc1ccccc1C(=O)NCC(=O)OCCCOC(=O)CNC(=O)c1ccccc1OC	inactive
CC(=O)Nc1ccc(-c2cc(N)n(-c3ccccc3)n2)cc1	inconclusive: 18.3 µM [activator, partial curve]
O=c1c(=Nc2ccccc2O)c(=O)c2ccccc12	inconclusive: 10.3 µM [activator, partial curve, poor fit]
COc1ccc(Br)cc1C(=O)NC(=S)Nc1cc(-c2nc3ccccc3[nH]2)ccc1C	inactive
COc1cc2c(cc1NC(=O)C1CCCO1)oc1ccccc12 (centres undefined)	active: 4.61 µM
O=C(c1ccc2nc(Cc3ccccc3F)oc2c1)N1CC[C@H](O)C1	inconclusive: 23.1 µM [activator, partial curve, poor fit]

Reference: PubChem BioAssay AID504466 (National Center for Advancing Translational Sciences (NCATS), 2011)
